# Screen size: about 370,000 compounds; about 150 (0.041%) were called active. Inconclusive means that the source gave no clear call. Such entries were picked first, then a sample of the others. Calls follow the shape of the dose curve; as a rule, active = well fitted inhibition curve with a large enough effect; inconclusive = small, poorly fitted or top-dose-only effect; inactive = flat fitted curve, though single readings scatter. No potency is given beside an inconclusive call; the fits are too rough.
# Biological target: Beta-lactamase (Escherichia coli (strain K12)) (UniProt P00811)
# Experiment: qHTS Inhibitors of AmpC Beta-Lactamase (assay with detergent); also: nearly all actives have a fitted effect of over 25% in size
# Conditions: AmpC hydrolysis of nitrocefin, absorbance 480 nm, 0.01% Triton; series mostly up to 114 µM
# In short: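 20 mM phosphate pH 7.0 + 0.01% (detergent screen) or 0.0001% Triton X-100; 5.3 nM AmpC reagent; cpd preinc 15 min RT; nitrocefin (800 uM stock) to start; A480 q20 s × 4 min; Activity was normalised to no-enzyme and no-compound control wells.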
# Potency is read from the fitted curve at half-maximal effect; tags tell the direction and shape of the fitted curve.
# Chain of UniProt P00811 (P00811 whole entry, looked up): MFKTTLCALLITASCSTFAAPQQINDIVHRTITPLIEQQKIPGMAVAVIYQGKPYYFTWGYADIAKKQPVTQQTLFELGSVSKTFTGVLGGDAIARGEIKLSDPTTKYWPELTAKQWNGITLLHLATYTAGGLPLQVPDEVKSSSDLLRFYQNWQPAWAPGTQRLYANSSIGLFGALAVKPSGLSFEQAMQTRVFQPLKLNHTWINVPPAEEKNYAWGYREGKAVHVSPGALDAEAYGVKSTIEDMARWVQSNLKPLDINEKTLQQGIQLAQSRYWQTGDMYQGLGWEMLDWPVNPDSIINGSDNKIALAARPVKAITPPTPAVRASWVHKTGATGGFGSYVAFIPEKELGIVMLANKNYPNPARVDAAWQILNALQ
row,Structure (SMILES),Potency
1,C/C=C/COC(=O)c1[nH]c2c(c1C)C(=O)CC(c1ccc(N(C)C)cc1)C2 (stereo unspecified),"inconclusive [inhibitor, full curve, poor fit]"
2,CC1(C)C/C(=N\NC(=S)Nc2ccccc2F)c2cc(O)ccc2O1,"inconclusive [inhibitor, full curve, poor fit]"
3,COc1cccc(N2CCN(c3c(C#N)c(C(F)(F)F)nn3C)CC2)c1,"inconclusive [inhibitor, partial curve]"
4,c1ccc(C2CCC(N3CCC(N4CCCCC4)CC3)CC2)cc1 (stereo unspecified),"inconclusive [inhibitor, full curve, poor fit]"
5,Cc1cc(C(=O)NC2CCCc3ccccc32)no1 (stereo unspecified),"inconclusive [inhibitor, full curve]"
6,O=C(Nc1cc([N+](=O)[O-])ccc1Cl)c1cccnc1,inactive
7,CS(=O)(=O)N1CCC(C(=O)Nc2cc(Cl)cc(Cl)c2)CC1,"inconclusive [inhibitor, single point]"
8,O=C(N/N=C/c1cc(Br)ccc1O)c1ccccc1Cl,"inconclusive [inhibitor, partial curve]"
9,COc1ccc(CN2CCN(S(=O)(=O)c3ccc(NC(C)=O)cc3)CC2)cc1OC,inactive
10,CCn1c(SCC(=O)N=Nc2c(O)[nH]c3ccccc23)nc2ccccc21,inactive
11,Cc1nn(C)c(C(=O)NNC(=S)Nc2ccc(Cl)cc2)c1[N+](=O)[O-],"inconclusive [inhibitor, full curve, poor fit]"
12,Cc1c(Br)c([N+](=O)[O-])nn1C(C)C(=O)NCc1cccnc1 (stereo unspecified),"inconclusive [inhibitor, single point]"
13,CCc1ccc(NC(=O)COC(=O)c2nc3nc(C)cc(C)n3n2)cc1,"inconclusive [inhibitor, full curve]"
14,NC1=NC[C@@H](Cc2ccc(O)cc2)N1CCc1cc(C(F)(F)F)cc(C(F)(F)F)c1,inactive
15,COc1cccc(CNc2ncc(-c3ccc(Br)cc3)n2C)c1,inactive
16,O=C(NCCN1CCOCC1)c1cc(-c2ccc(Cl)s2)nc2ccccc12,inactive
17,O=C(NCCc1ccccc1)c1c(O)c2cccc3c2n(c1=O)CC3,"inconclusive [inhibitor, full curve, poor fit]"
18,Cn1c(Cn2cnc3ccccc32)nc2ccccc21,"inconclusive [inhibitor, full curve, poor fit]"
19,COc1cccc2sc(N3CCN(C(=O)CS(=O)(=O)c4ccc(Cl)cc4)CC3)nc12,inactive
20,COc1cccc(NC(=O)CN(C)C(=O)C2=COCCO2)c1,"inconclusive [inhibitor, full curve]"
21,O=C(N/N=C/c1cccc(Br)c1)c1ccc(Cn2cc(Br)cn2)o1,"inconclusive [inhibitor, partial curve]"
22,Cc1cc(C(=O)CSc2nc3ccccc3c(=O)[nH]2)c(C)n1CC1CCCO1 (stereo unspecified),inactive
23,Cc1onc(-c2ccc(Br)cc2)c1C(=O)Nc1ccc(Br)cc1F,inactive
24,Cc1cc(=O)n(C)c(=O)n1CCCCCN1CCCC1,"inconclusive [inhibitor, full curve, poor fit]"

row,Structure (SMILES),Potency
1,CC(C)c1onc(C(=O)N2CCCCC2)c1[N+](=O)[O-],"inconclusive [inhibitor, full curve, poor fit]"
2,Cc1ccccc1OCc1nc2ccccc2c(=O)n1/N=C/c1c[nH]c2ccccc12,"inconclusive [inhibitor, single point]"
3,COc1ccccc1OCCn1c(SCC(N)=O)nc2ccccc21,"inconclusive [inhibitor, full curve]"
4,Cc1[nH]c(=O)[nH]c1CN1CCCCC1,"inconclusive [inhibitor, full curve, poor fit]"
5,O=C(NCCCSc1ccccc1)c1cc(Br)ccc1O,inactive
6,COc1ccc(CNC(=O)COc2ccc(C(=O)c3ccc(F)cc3)cc2)cc1,"inconclusive [inhibitor, partial curve, poor fit]"
7,Cn1c(N)c(C(=O)COC(=O)C2CCCCC2)c(=O)n(C)c1=O,inactive
8,CCCCN(C(=O)c1ccc2c(c1)S(=O)(=O)N=C1CCCCCN12)c1c(N)n(CCCC)c(=O)[nH]c1=O,inactive
9,O=C1CC(SC2=NCCS2)C(=O)N1c1ccc(Cl)cc1 (stereo unspecified),inactive
10,COc1ccc(-c2nn(-c3ccccc3)cc2C#N)cc1,"inconclusive [inhibitor, full curve, poor fit]"
11,O=C(NC1CCN(C(=S)NCc2ccco2)CC1)c1ccc(F)cc1,"inconclusive [inhibitor, full curve]"
12,Cn1c(SCC(N)=O)nc2c([nH]c3ccccc32)c1=O,inactive
13,CCOC(=O)C1CCN(Cc2ccc(-c3ccccc3)cc2)CC1,"inconclusive [inhibitor, full curve, poor fit]"
14,CCCC1OC2CC3C4CCC5=CC(=O)C=CC5(C)C4C(O)CC3(C)C2(C(=O)O)O1 (stereo unspecified),inactive
15,CCC(C)(C)C(=O)Nc1ncc(S(=O)(=O)c2ccc([N+](=O)[O-])cc2)s1,"inconclusive [inhibitor, full curve]"
16,Clc1ccccc1Cn1cccc1C1=NC(Cc2ccccc2)CO1 (stereo unspecified),inactive
17,CC(C)c1ccc(NC(=O)C(c2ccccc2)N(Cc2ccco2)C(=O)CC2NC(=O)NC2=O)cc1 (stereo unspecified),"inconclusive [inhibitor, single point]"
18,CC(C)Oc1ccccc1/C=N/NC(=O)C1CCCC1,inactive
19,CCOC(=O)CN1C(=O)N[C@@H](c2ccccc2)C(C(=O)OC)=C1C,"inconclusive [inhibitor, full curve]"
20,Cc1cccc(NC(=O)NNC(=O)CCc2ccccc2)c1,"inconclusive [inhibitor, full curve]"
21,Cc1cccc(NC(=S)NC2CC3CCCC(C2)N3Cc2cccs2)c1C (stereo unspecified),"inconclusive [inhibitor, full curve]"
22,O=C(NNc1nc2cc3c(cc2s1)OCO3)c1cccc(F)c1,"inconclusive [inhibitor, full curve, poor fit]"
23,Cc1ccc(N(Cc2cccs2)C(=O)c2ccccc2)cc1,inactive
24,O=C(COC(=O)CCc1nc2ccccc2c(=O)[nH]1)Nc1ccccc1OC(F)F,inactive

row,Structure (SMILES),Potency
1,CC(C)c1ccc2nc(NC(=O)C3CC3)sc2c1,inactive
2,CCOC(=O)c1nc2cc3n(c(CC(C)C)c-2c1C)CC(C)=C3C,"inconclusive [inhibitor, single point]"
3,Cc1ccc(C(=O)N2CCCC2)cc1S(=O)(=O)N1CCCCC1,inactive
4,Cc1cccc(C(=O)Nc2cccc(C(=O)N/N=C/c3cccc(C)n3)c2)c1,inactive
5,O=C1CCC(=O)N1c1ccc(CSc2nnnn2C2CCCCC2)cc1,"inconclusive [inhibitor, full curve]"
6,CCC1(CC)NC(=O)N(CC(=O)OCC(=O)Nc2ccc(C(F)(F)F)cc2)C1=O,"inconclusive [inhibitor, full curve, poor fit]"
7,Cc1ccc2cc3cc(C(=O)N4CCN(c5cccc(C(F)(F)F)c5)CC4)sc3nc2c1,inactive
8,Cc1c(NC(=S)NC(=O)c2ccco2)c(=O)n(-c2ccccc2)n1C,"inconclusive [inhibitor, single point]"
9,CC1CCN(S(=O)(=O)c2cccc(C(=O)NC3CCCC3)c2)CC1,"inconclusive [inhibitor, full curve, poor fit]"
10,COc1cccc(-c2csc(N3CCN(C(=S)Nc4cccc(C)c4)CC3)n2)c1,inactive
11,COC(=O)c1cn(NC(=O)c2ccc(OC)c([N+](=O)[O-])c2)c(=O)c2ccccc12,inactive
12,Cc1ccc(N(CC(=O)NCc2ccc3c(c2)OCO3)S(=O)(=O)c2c(C)noc2C)cc1,"inconclusive [inhibitor, full curve, poor fit]"
13,Cc1ccc(-n2c(Cc3cccn3C)nnc2SCC(=O)Nc2cc(C)on2)cc1,"inconclusive [inhibitor, single point]"
14,COC(=O)c1ccccc1NC(=O)Nc1ccc(C(=O)N2CCCC2)cc1,"inconclusive [inhibitor, full curve, poor fit]"
15,C=CCNC(=O)C(C#N)c1nc2ccccc2nc1N1CCCCCC1 (stereo unspecified),"inconclusive [inhibitor, partial curve, poor fit]"
16,Cc1cc(C)nc(SCC(=O)Nc2ccc3c(c2)OCO3)n1,inactive
17,CCOC(=O)N1CCC(NC(=O)c2cc(C(=O)Nc3ccc(S(=O)(=O)N4CCCCC4)cc3)ccc2CO)CC1,"inconclusive [inhibitor, single point]"
18,CCOC(=O)c1cccc(NC(=O)CSc2nnc(C)n2Cc2ccccc2)c1,"inconclusive [inhibitor, full curve, poor fit]"
19,Cn1cc(Br)c(C(=O)Nc2ccc3c(C(F)(F)F)cc(=O)oc3c2)n1,"inconclusive [inhibitor, full curve, poor fit]"
20,COc1ccc(N=Nc2ccc(N)nc2N)cc1,inactive
21,N#CNC(=Nc1cccc(F)c1)SCc1ccccc1,"inconclusive [inhibitor, single point]"
22,Cc1c(NC(=O)COc2ccccc2Cl)c(=O)n(-c2ccccc2)n1C,"inconclusive [inhibitor, full curve, poor fit]"
23,CCCCn1c(=O)n(CC(=O)Nc2ccc(C)c(Cl)c2)c(=O)c2c1ncn2Cc1ccco1,inactive
